From PubChem BioAssay AID652106 (National Center for Advancing Translational Sciences (NCATS), 2013)
The whole screen tested about 370,000 compounds, of which about 500 (0.14%) were called active. Inconclusive means that the source gave no clear call. Such entries were picked first, then a sample of the others. Calls come from the whole dose curve; as a rule, active = well fitted activation curve with a large enough effect; inconclusive = small, poorly fitted or top-dose-only effect; inactive = no such curve, though single readings can be large or run the other way. Potencies of inconclusive entries are left out as doubtful fits.
Potency is the fitted concentration of half-maximal effect; tags give direction and shape of the fitted curve.

Test: qHTS of alpha-syn Inhibitors; note: nearly all actives have a fitted effect of over 65% in size; for growth rescue (activation): % of control where 0% means no effect
Conditions: Yeast expressing alpha-synuclein, BacTiter-Glo, 24 h; Potency: growth rescue unless noted; growth rescue (activation): at 46.1 µM (top of the series) unless noted
How it was run: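 Galactose-induced alpha-syn yeast (OD600=0.02, raffinose-pregrown) + pinned cpd, 24 hr, 30 deg C; growth by BacTiter-Glo luminescence. Growth restoration scores as activation.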
With `COc1ccc(CN2C(=O)C(CC(=O)NC3CCCCC3)CC(C(=O)N(C)C)=C2C)cc1` (centres undefined) the Potency was active: 3.55 µM.
With `O=S(=O)(Nc1cccc2cccnc12)c1cccs1` the Potency was active: 22.4 µM.
With `Cc1cccc2sc(N(CCCN(C)C)C(=O)c3ccc(C(=O)c4ccccc4)cc3)nc12` the Potency was inconclusive [activator, single point].
For `COc1ccc(CCC(=O)Nc2ccc(OC)c(S(=O)(=O)N3CCCCC3)c2)cc1`, the Potency was inconclusive [activator, single point].
With `COc1cccc(N2C(C(C)=O)=NN(c3ccccc3)C2c2ccc(N3CCOCC3)cc2)c1` (centres undefined) the Potency was “inactive”.
In the case of `COc1ccc(NC(=O)CN2C(=O)C3(SCC(=O)N3c3ccccc3)c3ccccc32)cc1Cl` (centres undefined), the Potency is reported as “inactive”.
With `Cc1ccc(S(=O)(=O)Nc2cccc3cccnc23)cc1` the Potency was inconclusive [activator, single point].
In the case of `COc1ccc(N/N=C(\C#N)C(=N)SCc2ccccc2)cc1`, the Potency is reported as inconclusive [activator, single point].
For `COc1ccc(Nc2cnn(-c3nc4ccccc4s3)c(=O)c2Cl)cc1`, the Potency was “inactive”.
With `COc1ccc(C(C(=O)NC(C)(C)C)n2c(=O)c(-c3cc4ccccc4[nH]3)nc3ccccc32)cc1` (centres undefined) the Potency was inconclusive [activator, single point].
With `C[C@@H](c1ccccc1)N1C[C@@H](COCc2ccccc2)Oc2cc(N3CC[C@H](N(C)C)C3)ccc2S1(=O)=O` the Potency was inconclusive [activator, single point].
For `O=C(CCl)Nc1cccc(S(=O)(=O)NC2=NCCCCC2)c1`, the Potency was “inactive”.
For `CCCOc1ccc(N/C=C/C(=O)c2cc(OC)c(OC)c(OC)c2)cc1`, the Potency was inconclusive [activator, single point].
With `COC(=O)c1cc(C(=O)OCC(=O)N(C)c2ccccc2)cc([N+](=O)[O-])c1` the Potency was inconclusive [activator, single point].
In the case of `Cc1ccc2nc(-c3ccc(NC(=O)CN4CCN(c5ccccn5)CC4)cc3)sc2c1`, the Potency is reported as inconclusive [activator, partial curve, poor fit].
For `Cc1ccc(Cn2c(Sc3nnc(C)s3)nc3c2c(=O)[nH]c(=O)n3C)cc1`, the Potency was inconclusive [activator, single point].
For `O=C(CSc1cccc[n+]1[O-])c1ccc(Cl)cc1`, the Potency was inconclusive [activator, single point].
With `c1ccc(-c2ccc(-c3csc4ncnc(Sc5nnnn5-c5ccccc5)c34)cc2)cc1` the Potency was “inactive”.
With `COc1ccc(NCc2cc(=O)oc3cc(NC(C)=O)ccc23)cc1` the Potency was “inactive”.
In the case of `O=C1S/C(=C\c2ccc(N3CCOCC3)o2)C(=O)N1c1ccccc1`, the Potency is reported as inconclusive [activator, single point].
In the case of `Cc1cc(C(=O)OCn2nnc3ccccc3c2=O)c(C)n1-c1ccccc1`, the Potency is reported as inconclusive [activator, single point].
With `Cc1cc2c(N=O)c(NO)ccc2[nH]1` the Potency was inconclusive [activator, single point].
With `CC1=Nc2cc(C(=O)NCC3CCCO3)ccc2Sc2ccc(Br)cc21` (centres undefined) the Potency was inconclusive [activator, single point].
With `CC(C)(C)NC(=O)C(CCc1ccccc1)n1c(=O)c(-c2cc3ccccc3[nH]2)nc2ccccc21` (centres undefined) the Potency was inconclusive [activator, partial curve].
For `COc1ccc(NC(=O)Nc2ccc(F)c(Cl)c2)cc1`, the Potency was “inactive”.
For `CC(=O)c1c(O)cc2c3c1OC(C)(C)C1CCC(C)(CC31)O2` (centres undefined), the Potency was “inactive”.
With `Cn1c(SCC(=O)N2c3ccccc3Sc3ccc(Cl)cc32)nnc1-c1ccco1` the Potency was inconclusive [activator, full curve].
With `CCOc1ccc(N=C(C)C2=C(O)c3ccccc3C2=O)cc1` the Potency was inconclusive [activator, single point].
With `CC(=O)N1CCOc2cc(S(=O)(=O)NC(C)c3ccccc3)c(Cl)cc21` (centres undefined) the Potency was inconclusive [activator, single point].
In the case of `Oc1ccc(CNc2ccc(F)cc2)c2cccnc12`, the Potency is reported as inconclusive [activator, single point].
With `N#Cc1nc(-c2cccs2)oc1NCCc1ccccc1` the Potency was “inactive”.
In the case of `Cc1cccc(NC(=S)N(Cc2cccs2)Cc2cc3cc(C)cc(C)c3[nH]c2=O)c1`, the Potency is reported as inconclusive [activator, single point].
With `CC1CCCCC1NC(=O)COC(=O)c1ccc2c(c1Cl)C(=O)c1ccccc1C2=O` (centres undefined) the Potency was inconclusive [activator, single point].
In the case of `CC1(C)CC(=O)C(CSC(=O)c2ccccc2)C(=O)C1`, the growth rescue (activation) is reported as inconclusive: -73.2% [activator].
With `COc1ccc(-n2c(=O)c(CCC(=O)N(C)Cc3ccccc3C)nc3ccccc32)cc1` the Potency was “inactive”.
In the case of `Cc1ccc(-c2cnc(C3CC3)o2)cc1S(=O)(=O)Nc1ccccc1`, the Potency is reported as inconclusive [activator, single point].
With `CC(c1ccccc1)N1CCn2c(nc3cc(NC(=O)NC4CCCCC4)ccc32)C1` (centres undefined) the Potency was “inactive”.
With `O=C(COC(=O)C1CC2CCCC(C1)C2=O)Nc1cccc(F)c1` (centres undefined) the Potency was “inactive”.
With `Cc1ccc(O)c(NC(=O)Cc2ccc3ccccc3c2)c1` the Potency was inconclusive [activator, single point].
In the case of `CC(=NNC(=O)c1cccc(S(=O)(=O)N2CCOCC2)c1)c1ccc(Cl)cc1`, the Potency is reported as “inactive”.
For `COc1ccc(OC)c2sc(NC(=O)c3ccc(S(=O)(=O)N4CCCC4)cc3)nc12`, the Potency was “inactive”.
For `CC1(C(=O)Nc2ccc3c(c2)OCCO3)CN(S(C)(=O)=O)CC(=O)N1CCCN1CCOCC1` (centres undefined), the Potency was inconclusive [activator, single point].
In the case of `COc1ccccc1N1CCN(C(=O)c2ccc3[nH]c4c(c3c2)CCCC4)CC1`, the Potency is reported as inconclusive [activator, single point].
With `O=C1OCCN1C(=O)[C@H]1[C@H](c2ccc(Cl)cc2)C(c2cccc(Cl)c2)=NN1c1ccccc1` the Potency was inconclusive [activator, partial curve].
With `O=C(Cc1c(O)c2ccccc2[nH]c1=O)N(Cc1ccccc1)Cc1ccccc1` the Potency was inconclusive [activator, single point].
In the case of `O=C(Nc1ccc(Br)cc1)c1ccc(F)c(S(=O)(=O)NCc2cccs2)c1`, the Potency is reported as inconclusive [activator, single point].
With `CC(C)N1CCN(c2ccc(OCC3COC(Cn4cncn4)(c4ccc(Cl)cc4Cl)O3)cc2)CC1` (centres undefined) the Potency was inconclusive [activator, full curve, poor fit].
For `CC(CCCCCCCCC(=O)O)N(CCO)C(=O)OC(C)(C)C` (centres undefined), the Potency was inconclusive [activator, single point].
For `CCC1CCCCN1C(=O)C(=O)c1cn(CC(=O)N(CC)CC)c2ccccc12` (centres undefined), the Potency was “inactive”.
With `Cc1oc2cc(O)ccc2c(=O)c1Oc1ccccc1` the Potency was “inactive”.
For `O=C(Nc1nnc(C2CC2)o1)c1ccc(S(=O)(=O)N2CCCc3ccccc32)cc1`, the Potency was inconclusive [activator, single point].
In the case of `COC(=O)c1ccc(NC(=O)c2ccc3nccnc3c2)cc1`, the Potency is reported as inconclusive [activator, single point].
For `COc1ccc(Nc2nnc(SCc3cc(=O)n4ccsc4n3)s2)cc1`, the Potency was inconclusive [activator, single point].
For `O=S(=O)(Nc1ccc2c3c(cccc13)CC2)c1ccc(F)cc1`, the Potency was inconclusive [activator, single point].
For `Cc1ccc(OCC(=O)Nc2ccccc2C(=O)NC2CC2)cc1C`, the Potency was inconclusive [activator, single point].
With `CC(C(=O)OCC(=O)NC1CCCCC1)N1C(=O)c2ccccc2C1=O` (centres undefined) the Potency was inconclusive [activator, partial curve].
In the case of `Cn1c(=O)c(Sc2ccccc2)c(O)c2ccccc21`, the Potency is reported as “inactive”.
For `O=C(Oc1ccc(N(C(=O)c2ccncc2)S(=O)(=O)c2ccc(Cl)cc2)cc1)c1ccncc1`, the Potency was inconclusive [activator, single point].
For `COc1ccc(OC)c(NS(=O)(=O)c2cc3c(cc2Cl)N(C(C)=O)CCO3)c1`, the Potency was inconclusive [activator, single point].
For `CCNc1nc(NCC)nc(SCCOC(=O)COc2ccc(Cl)cc2Cl)n1`, the Potency was “inactive”.
With `Cc1cc2nc(C(C)(C)C)c(Cc3ccccc3C(F)(F)F)n2c(C)c1Br` the Potency was inconclusive [activator, single point].
For `CCCCNC(=S)N1CCn2cccc2C1c1ccccc1` (centres undefined), the Potency was “inactive”.
In the case of `CC(C)CN1CCN=C1Nc1ccccc1`, the Potency is reported as inconclusive [activator, single point].
In the case of `CCOC(=O)c1cccc(NC(=O)/C=C/c2ccc3c(c2)OCO3)c1`, the Potency is reported as “inactive”.
In the case of `O=C(COc1ccccc1)N1CCN(c2ncccn2)CC1`, the Potency is reported as “inactive”.
With `Oc1[nH]c2ccccc2c1N=NC(=S)N1CCOCC1` the Potency was inconclusive [activator, single point].
In the case of `Cc1ccc([C@H]2C[C@@H](n3cc(-c4ccc(F)cc4)nn3)[C@H](O)CN2C(=O)C2CCCCC2)cc1`, the Potency is reported as inconclusive [activator, single point].
With `Cc1ccc(S(=O)(=O)Nc2ccccc2C(N)=O)cc1` the Potency was “inactive”.
For `COC(=O)c1ccc2c(c1)N(Cc1ccc(Cl)cc1)C(=O)c1ccccc1S2`, the Potency was inconclusive [activator, partial curve].
